Assay results as given in PubChem BioAssay AID504332 (National Center for Advancing Translational Sciences (NCATS), 2011).
Out of some 350,000 compounds screened, about 31,000 (8.9%) were called active. This list was built around the results that the source calls inconclusive (neither active nor inactive); the mix of calls is not that of the screen. Calls come from the whole dose curve; as a rule, active = well fitted inhibition curve with a large enough effect; inconclusive = small, poorly fitted or top-dose-only effect; inactive = no such curve, though single readings can be large or run the other way. Potencies beside an inconclusive call are fits to weak or partial responses and may not hold up.

These molecules were tested against Histone-lysine N-methyltransferase EHMT2 (Homo sapiens) (UniProt Q96KQ7) (assay: qHTS Assay for Inhibitors of Histone Lysine Methyltransferase G9a). Conditions: G9a H3K9 monomethylation, AlphaScreen, 2 h; activity, negative = inhibition: at 59 µM (top of the series) unless noted.
UniProt Q96KQ7, sequence (Q96KQ7 whole entry, looked up): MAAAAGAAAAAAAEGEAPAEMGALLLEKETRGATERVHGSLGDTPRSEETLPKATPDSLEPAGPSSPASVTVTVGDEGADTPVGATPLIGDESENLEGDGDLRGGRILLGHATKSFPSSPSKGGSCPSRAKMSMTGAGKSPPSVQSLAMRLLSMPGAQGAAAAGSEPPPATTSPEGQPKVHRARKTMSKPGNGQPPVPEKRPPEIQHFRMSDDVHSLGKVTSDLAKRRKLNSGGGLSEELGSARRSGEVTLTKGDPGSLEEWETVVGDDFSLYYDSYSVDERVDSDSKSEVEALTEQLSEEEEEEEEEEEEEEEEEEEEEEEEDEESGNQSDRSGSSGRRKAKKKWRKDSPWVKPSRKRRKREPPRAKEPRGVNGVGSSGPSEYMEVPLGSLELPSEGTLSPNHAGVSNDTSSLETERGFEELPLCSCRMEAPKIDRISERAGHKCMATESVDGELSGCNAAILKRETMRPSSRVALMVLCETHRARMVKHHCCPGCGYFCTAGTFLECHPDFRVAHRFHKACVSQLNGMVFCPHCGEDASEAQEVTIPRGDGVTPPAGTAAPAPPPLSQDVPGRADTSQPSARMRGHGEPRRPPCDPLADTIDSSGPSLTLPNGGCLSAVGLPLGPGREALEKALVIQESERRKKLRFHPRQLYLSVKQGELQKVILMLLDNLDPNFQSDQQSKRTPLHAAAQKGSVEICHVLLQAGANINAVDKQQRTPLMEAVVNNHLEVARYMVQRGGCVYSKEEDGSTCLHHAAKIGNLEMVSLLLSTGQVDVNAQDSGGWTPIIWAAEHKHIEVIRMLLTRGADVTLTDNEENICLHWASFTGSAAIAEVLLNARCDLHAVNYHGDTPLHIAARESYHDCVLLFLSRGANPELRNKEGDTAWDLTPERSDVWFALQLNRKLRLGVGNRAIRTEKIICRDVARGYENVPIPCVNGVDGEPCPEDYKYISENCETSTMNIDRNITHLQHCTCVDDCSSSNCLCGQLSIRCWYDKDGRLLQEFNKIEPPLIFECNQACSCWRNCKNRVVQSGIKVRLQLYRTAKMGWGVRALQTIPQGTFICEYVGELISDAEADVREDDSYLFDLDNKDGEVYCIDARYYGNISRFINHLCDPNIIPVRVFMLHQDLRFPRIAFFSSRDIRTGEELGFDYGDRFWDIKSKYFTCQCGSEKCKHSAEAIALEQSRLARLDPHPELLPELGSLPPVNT
Summary of the method: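 Chemiluminescent proximity detection of H3K9 monomethylation, read after 10 min bead incubation in the dark. Reaction: 20 nM G9a, 500 nM biotin-H3K9 peptide, 20 uM SAM cofactor, 2 h, room temperature, following 15 min enzyme-compound preincubation.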
% is set by controls: 0 for no effect and ±100 for the full control effect; potency is the fitted concentration of half-maximal effect; tags give direction and shape of the fitted curve.
Note: nearly all actives have a fitted effect of over 75% in size.

Q: How did the Potency turn out when N#Cc1c(NC(=O)C2CC2)sc2c1CCCCC2 was run?
A: active: 89.1 µM

Q: With O=C(NCC1CCCO1)c1cc(-c2ccco2)nc2ccccc12 (centres undefined) as the molecule, how does the Potency read?
A: active: 44.7 µM

Q: CCc1nn(CC(=O)NC2CC2)c(=O)c2cc3ccccc3n12 was tested. Which “activity, negative = inhibition” value did it give?
A: inactive: 25.7%

Q: COc1cccc(Cn2c(=O)c(-c3cccs3)nc3cnc(N4CCNCC4)nc32)c1 was tested. Which activity, negative = inhibition did it give?
A: inactive: 11.7% [at 0.501 µM]

Q: Which Potency does the source give for O=C(Cn1cccc1C(=O)c1ccccc1)NCCN1CCCCCC1 here?
A: inconclusive: 89.1 µM [inhibitor, single point]

Q: With CN(c1ccccc1)c1ccc(/C=N/N2CCOCC2)cc1 as the molecule, how does the Potency read?
A: inconclusive: 35.5 µM [inhibitor, single point]

Q: How did the Potency turn out when Cc1ccc(C2C3=C(CCCC3=O)N=C3c4ccccc4C(=O)C32)cc1 (centres undefined) was run?
A: active: 44.7 µM

Q: Which Potency does the source give for C=CCN(c1ccccc1)S(=O)(=O)c1cccc(C(=O)NC2CCC(O)CC2)c1 (centres undefined) here?
A: inconclusive: 70.8 µM [inhibitor, partial curve, poor fit]

Q: For Cn1c(SCC(=O)Nc2nc3c(s2)CCCC3)nnc1-c1ccccc1, which Potency is on record?
A: inconclusive: 70.8 µM [inhibitor, single point]

Q: How did the Potency turn out when COc1ccc(C(=O)C[n+]2cn(C(F)F)c3ccccc32)c(F)c1 was run?
A: inconclusive: 89.1 µM [inhibitor, single point]

Q: How did the Potency turn out when O=C(N/N=C/c1ccc[nH]1)c1cc(-c2cccs2)nc2ccccc12 was run?
A: inconclusive: 50.1 µM [inhibitor, partial curve, poor fit]

Q: CC1(C)CC(=O)c2c(oc3cc(O)c(O)cc23)C1 was tested. Which Potency did it give?
A: active: 3.55 µM

Q: How did the Potency turn out when COc1ccc(C)cc1-n1c(-c2ccncc2)n[nH]c1=S was run?
A: inconclusive: 35.5 µM [inhibitor, single point]

Q: Which Potency does the source give for O=C1CCCC(O)=C1N=Nc1c(Cl)cc(Cl)cc1Cl here?
A: active: 8.91 µM

Q: For COc1ccc(N2CCN(Cc3nc4c(c(=O)[nH]c(=O)n4C)n3Cc3ccccc3)CC2)cc1, which “activity, negative = inhibition” value is on record?
A: inactive: -2.47%

Q: Which Potency does the source give for COC(=O)c1cc(CSc2nnc(-c3ccccc3)c(-c3ccccc3)n2)oc1C here?
A: inconclusive: 7.94 µM [inhibitor, partial curve, poor fit]

Q: With Cn1c(=O)c2sccc2n2c(CCC(=O)NCc3ccccc3)nnc12 as the molecule, how does the Potency read?
A: inconclusive: 6.31 µM [inhibitor, single point]

Q: How did the Potency turn out when Cc1cccc(-c2nnc(SCC#N)n2-c2cccc(Cl)c2)c1 was run?
A: inconclusive: 17.8 µM [inhibitor, single point]

Q: COC(=O)c1ccc(C(=O)OC)c(NC(=O)c2c(-c3ccccc3)c(-c3ccccc3)nn(C)c2=O)c1 was tested. Which Potency did it give?
A: inconclusive: 25.1 µM [inhibitor, partial curve, poor fit]
